Reference: the supplement of paper PMC3334620
Whole data set: some 33,000 sequences, median “E-score (-0.5 to 0.5)” near -0.012, cut for the highest 2% near 0.29. This is one part of the list.

These sequences were tested against T1, Ybr033w (UniProt P38073) (assay: PBM E-score (8-mer binding enrichment) (E-score (-0.5 to 0.5)); higher = stronger / more preferred TF binding; most listed sequences are background and not binding sites). Conditions: protein concentration: 200 nM; construct: GST-full length.
T1 sequence: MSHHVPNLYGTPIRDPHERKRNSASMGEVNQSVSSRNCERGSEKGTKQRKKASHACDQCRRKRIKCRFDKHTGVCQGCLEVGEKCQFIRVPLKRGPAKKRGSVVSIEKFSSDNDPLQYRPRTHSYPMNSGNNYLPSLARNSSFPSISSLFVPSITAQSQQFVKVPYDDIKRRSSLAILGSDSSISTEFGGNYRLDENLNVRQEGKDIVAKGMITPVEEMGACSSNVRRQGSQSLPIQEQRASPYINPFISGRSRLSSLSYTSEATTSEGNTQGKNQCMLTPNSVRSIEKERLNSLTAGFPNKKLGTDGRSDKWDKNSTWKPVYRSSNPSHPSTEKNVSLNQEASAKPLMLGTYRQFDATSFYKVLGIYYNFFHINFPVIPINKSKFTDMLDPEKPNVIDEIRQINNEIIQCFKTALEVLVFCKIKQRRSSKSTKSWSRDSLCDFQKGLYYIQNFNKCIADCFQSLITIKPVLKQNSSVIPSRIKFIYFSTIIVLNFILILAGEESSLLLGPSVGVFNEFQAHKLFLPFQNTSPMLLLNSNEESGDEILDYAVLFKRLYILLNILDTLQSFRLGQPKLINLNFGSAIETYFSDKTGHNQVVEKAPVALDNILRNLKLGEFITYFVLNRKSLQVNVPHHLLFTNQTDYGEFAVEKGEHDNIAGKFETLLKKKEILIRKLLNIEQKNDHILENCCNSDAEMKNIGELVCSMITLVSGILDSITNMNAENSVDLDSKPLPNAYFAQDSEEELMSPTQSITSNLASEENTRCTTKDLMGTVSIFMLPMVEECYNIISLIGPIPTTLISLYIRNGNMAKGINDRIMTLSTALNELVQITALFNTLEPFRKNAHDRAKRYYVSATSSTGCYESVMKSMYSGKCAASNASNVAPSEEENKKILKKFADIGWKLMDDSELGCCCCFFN
Summary of the method: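 Yeast transcription factors, full-length or as DNA-binding domains, were expressed with a GST tag using PURExpress in vitro transcription/translation. At about 100-200 nM they were applied to universal all-10-mer Agilent arrays, double-stranded by primer extension on fresh or once-stripped slides. Fluorescent anti-GST detected bound protein, and masliner normalised the scans. E-scores for ungapped eight-base words, pooled with reverse complements, came from the Universal PBM Analysis Suite.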

| Sequence | PBM E-score |
| --- | --- |
| CGTAGCAG | -0.0627 |
| ACTTGGCA | -0.115 |
| GTTCTCAA | 0.082 |
| AGCCTATG | -0.143 |
| GATGGACC | -0.219 |
| CGACGCAC | -0.00309 |
| ACTTCGCG | -0.0504 |
| ACTACAAG | 0.0881 |
| ACAGTCAC | -0.205 |
| GGCATACA | 0.0292 |
| CCCAGAGC | -0.237 |
| TAAGTTGA | 0.13 |
| CAGGCGTA | 0.0702 |
| ACTTCCCT | -0.0306 |
| GAGTGCCC | -0.289 |
| GGTTCACA | 0.0343 |
| ATCCGCGA | 0.00363 |
| AAGGTATA | 0.111 |
| TAAGCGCA | -0.0525 |
| ACCAATGG | 0.0589 |
| CCCCAGAA | -0.138 |
| CACCCACC | -0.0583 |
| CGAACTTA | 0.117 |
| ATCGTCTA | -0.0993 |
| CGACGTGC | -0.0395 |

| Sequence | PBM E-score |
| --- | --- |
| CCTCGAAA | 0.152 |
| AAGGAGTA | -0.0654 |
| AATTGTCG | -0.0516 |
| TATGGCCA | 0.0594 |
| CTTAACTC | 0.0941 |
| AGTCGACA | 0.136 |
| GGCGATGA | -0.265 |
| CGGCCAGC | -0.161 |
| AGCCCGAG | -0.157 |
| AGAGCTCT | -0.34 |
| CCAAGCCG | -0.0703 |
| ACCAGCAC | -0.0392 |
| CGTGTGGC | -0.237 |
| ACTACCAG | -0.0736 |
| AGTCATGG | -0.0905 |
| CTCACACC | -0.112 |
| AGAGAATG | -0.0312 |
| AATAAAGT | 0.265 |
| GCTATGCC | -0.27 |
| CCCTGCTA | -0.279 |
| TCTATCAA | 0.19 |
| ATCGCCAA | -0.136 |
| GGGTCGCA | -0.13 |
| ACCATGCG | -0.0411 |
| ATGTCCTC | 0.0728 |

| Sequence | PBM E-score |
| --- | --- |
| CATTGGTA | 0.165 |
| GCTCTTGA | 0.0083 |
| CGCCTATC | -0.0112 |
| ACGACTAG | 0.133 |
| CGCCCGCC | -0.161 |
| CACGACGC | -0.187 |
| CATGGCGC | -0.0707 |
| ACGGGGCG | -0.154 |
| CGCATCCG | -0.0664 |
| ATCCATTA | 0.0686 |
| AGATTTGC | 0.0651 |
| ATACATCG | 0.171 |
| AACGCATG | -0.00241 |
| AACAAGTT | 0.188 |
| AGTGCAGA | 0.00215 |
| AAAACCGC | 0.147 |
| AGTACAGC | 0.0289 |
| AGGTCGTA | 0.143 |
| ACTCCTCA | -0.135 |
| ATACAATC | 0.0522 |
| AAACTCCA | 0.239 |
| CTGCGCAA | 0.0462 |
| CGATCCGA | -0.0807 |
| CACCCTCC | -0.172 |
| CAAAACAC | 0.045 |

| Sequence | PBM E-score |
| --- | --- |
| TAACTACA | 0.25 |
| ACGTAGAG | -0.157 |
| CTGTATGA | -0.0728 |
| AACGAGCT | -0.0935 |
| AAACCTTC | -0.0214 |
| CCTCAGCG | -0.218 |
| GATTGTTA | 0.0997 |
| CCAGTAGC | 0.142 |
| CCCGACTC | -0.186 |
| ATGAACTG | 0.236 |
| AGTGGAAG | -0.166 |
| ACTCCCAC | -0.112 |
| GATGGCCA | -0.0719 |
| TGATACAA | 0.177 |
| GTGCGTTA | 0.116 |
| ACCATTCT | 0.0411 |
| GACAGGAA | 0.179 |
| CACCCTGA | -0.219 |
| ATCAAGAA | 0.202 |
| AGTATCCA | 0.137 |
| ACCCCTAT | -0.213 |
| AAGATGAA | 0.0867 |
| CGACCTGC | -0.188 |
| GTCAACGA | -0.147 |
| CGATGTGC | -0.168 |

| Sequence | PBM E-score |
| --- | --- |
| CAGTGTGA | 0.148 |
| TGATTACA | 0.252 |
| AGCTACTG | 0.139 |
| TAACGCCA | -0.21 |
| ATGCCTAG | 0.0139 |
| CAACCTCC | -0.14 |
| TAGAGCGA | 0.0262 |
| ACTAAAAC | 0.124 |
| TACGAAAA | 0.225 |
| AGCTGTCC | -0.0801 |
| GGGTGTCA | -0.0557 |
| AGAGTTTG | 0.042 |
| TACGCCTA | -0.0143 |
| AAACCTGC | 0.00588 |
| CGTCACCA | -0.0147 |
| AATAATGC | 0.261 |
| CGGCAACA | 0.0409 |
| CCCCGACC | -0.253 |
| GTTCGCCA | 0.00064 |
| AAAGGACT | -0.146 |
| GCCCGCAA | -0.176 |
| CATCAAAA | 0.108 |
| ACGTTTCG | 0.0003 |
| ACAGATAT | 0.145 |
| AAACTAAG | 0.21 |

| Sequence | PBM E-score |
| --- | --- |
| ATCATCAT | 0.224 |
| GAATAGGA | 0.127 |
| CGGAGCAA | 0.105 |
| CTCTTACA | 0.0927 |
| CGGATCTA | 0.0379 |
| ATGTAAAC | 0.121 |
| ACTCCCGC | -0.132 |
| ACACGCCA | -0.104 |
| AAAGGGCC | -0.275 |
| CTGGGAAG | -0.125 |
| ATTGGCGC | -0.00082 |
| CTGAGAAC | 0.0621 |
| TCATTTCA | 0.0938 |
| CAAATGTC | -0.132 |
| GGACAAAA | 0.237 |
| CGGCATTC | 0.0953 |
| GGGGTATA | -0.249 |
| AGCCCACA | -0.0587 |
| ACATGGAC | 0.0947 |
| ATGCACCC | -0.0724 |
| CACTCGAC | -0.162 |
| TAATCTCA | 0.103 |
| GCTTGCAA | 0.078 |
| ACGGGCTA | -0.252 |
| CTTCTGAA | -0.00241 |

| Sequence | PBM E-score |
| --- | --- |
| CCGCGACG | -0.07 |
| ATAGGTAG | 0.0525 |
| AAGTTAAA | 0.154 |
| ACATGGCG | -0.111 |
| CGGGACGA | -0.0187 |
| ACTTAAGC | 0.0594 |
| AAAAAGAG | 0.0974 |
| AAGTCCAG | -0.00674 |
| GCGAATAA | 0.0126 |
| AGACCGAG | 0.0515 |
| GGAATGGA | -0.0588 |
| CCAGGGCC | -0.294 |
| ACGATAAG | -0.00055 |
| AATTCTAC | 0.222 |
| AAACCAAA | 0.128 |
| ACTGTAAA | 0.24 |
| TGACCGAA | -0.0325 |
| ATGGGTAG | -0.0658 |
| CATAAGAC | 0.123 |
| ACCCGGAG | 0.0501 |
| GAACTTGC | -0.0233 |
| CTTCGATA | 0.169 |
